Source: the supplement of paper PMC9588766
Counter-ions that a name gives are not always drawn. ± gives the standard deviation of the averaged measurements. The full ranking holds about 2,000 compounds; the median of “cell viability relative to DMSO control (compound alone)” is about 0.98, and the lowest 2% start at about 0.23. This is one part of the list.

system: PDC-DUC18828; assay: cell viability relative to DMSO control (compound alone) (fraction); PDC-DUC18828 is a patient-derived cholangiocarcinoma cell line; higher = less growth inhibition; conditions: 1 µM; 72 h
Experimental: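 Selleck Bioactive library screen in the patient-derived FGFR2-G3BP2 fusion-positive ICC cell line PDC-DUC18828 (500 cells/well). Each compound was tested at 1 uM alone, in triplicate, for 72 h. Viability was read by CellTiter-Glo and normalised to plate DMSO controls.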

Row | SMILES | cell viability
1 | CC1CC(OC(=O)C(O)c2ccccc2)CC(C)(C)C1 (centres undefined) [Cyclandelate] | 1.02 ± 0.03
2 | CCOC(=O)[C@H](CCc1ccccc1)N[C@@H](C)C(=O)N1Cc2ccccc2C[C@H]1C(=O)O [Quinapril HCl] | 0.974 ± 0.034
3 | CC(CCc1ccccc1)NCC(O)c1ccc(O)c(C(N)=O)c1 (centres undefined) [Labetalol HCl] | 1.06 ± 0.041
4 | CC1(C)S[C@@H]2[C@H](NC(=O)[C@H](NC(=O)N3CCNC3=O)c3ccccc3)C(=O)N2[C@H]1C(=O)O [Azlocillin sodium salt] | 1.04 ± 0.034
5 | CCn1c2ccccc2c2cc(Nc3ccnc(NCCCN4CCOCC4)n3)ccc21 | 0.953 ± 0.024
6 | Nc1nc2c(ncn2[C@@H]2O[C@H](CO)[C@@H](O)[C@H]2O)c(=O)[nH]1 [Guanosine] | 0.932 ± 0.034
7 | CC(C)OC(=O)[C@H](C)N[P@](=O)(OC[C@H]1O[C@@H](n2ccc(=O)[nH]c2=O)[C@](C)(F)[C@@H]1O)Oc1ccccc1 [Sofosbuvir (PSI-7977, GS-7977)] | 1.14 ± 0.14
8 | CC(C)n1nc(-c2ccc3oc(N)nc3c2)c2c(N)ncnc21 | 0.203 ± 0.0083
9 | O=C(O)c1cc(C(F)(F)F)ccc1N1CC[C@H](OCc2ccccn2)C1 | 0.962 ± 0.05
10 | CC(=O)Nc1nc2c(Oc3cc(-c4ccc(C(F)(F)F)cc4)ncn3)cccc2s1 | 0.962 ± 0.022
11 | N[C@@H](Cc1c[nH]c2ccc(O)cc12)C(=O)O [5-hydroxytryptophan (5-HTP)] | 1.07 ± 0.025
12 | NC(=O)c1nc(F)cnc1O [Favipiravir (T-705)] | 1.04 ± 0.046
13 | N=C(N)Nc1ccc(C(=O)Oc2ccc3cc(C(=N)N)ccc3c2)cc1 [Nafamostat Mesylate] | 1.02 ± 0.034
14 | O=C(NO)c1cccc(C(=O)NCCc2ccccc2)c1 | 0.894 ± 0.029
15 | O=C(O)/C=C/c1ccc(O)c(O)c1 [Caffeic Acid] | 1.04 ± 0.064
16 | CC1(C)CC(=O)c2c(C(F)(F)F)nn(-c3ccc(C(N)=O)c(N[C@H]4CC[C@H](O)CC4)c3)c2C1 | 0.33 ± 0.03
17 | CCCCc1nc2cc(/C=C/C(=O)NO)ccc2n1CCN(CC)CC [Pracinostat (SB939)] | 0.6136 ± 0.006
18 | COc1cc2nc(N(C)CCCNC(=O)C3CCCO3)nc(N)c2cc1OC (centres undefined) [Alfuzosin HCl] | 1.05 ± 0.028
19 | N#CSc1cc(SC#N)c(N)nc1N | 0.993 ± 0.05
20 | N[C@H]1C[C@@H]1c1ccc(-c2cccc(O)c2)cc1 | 1.02 ± 0.052
21 | COc1ccc(-c2ccc3ncc4c(c3c2)n(-c2ccc(N3CCNCC3)c(C(F)(F)F)c2)c(=O)n4C)cn1 | 0.0179 ± 0.0033
22 | CC(C)c1cc(-c2n[nH]c(=O)n2-c2ccc3c(ccn3C)c2)c(O)cc1O [Ganetespib (STA-9090)] | 0.332 ± 0.027
23 | CC(=O)O[C@]1(C(C)=O)CC[C@H]2[C@@H]3C=C(Cl)C4=CC(=O)[C@@H]5C[C@@H]5[C@]4(C)[C@H]3CC[C@@]21C [Cyproterone Acetate] | 1.06 ± 0.042
24 | CCCSc1nc(N[C@@H]2C[C@H]2c2ccc(F)c(F)c2)c2nnn([C@@H]3C[C@H](OCCO)[C@@H](O)[C@H]3O)c2n1 [Ticagrelor] | 1.02 ± 0.037
25 | C=CC(=O)Nc1cccc(Nc2nc(Nc3ccc(Oc4ccnc(C(=O)NC)c4)cc3)ncc2F)c1 | 0.918 ± 0.1
26 | Cn1cc(-c2cnn3c(N)c(Br)c([C@@H]4CCCNC4)nc23)cn1 | 1.01 ± 0.041
27 | O=C(O)COCCN1CCN(C(c2ccccc2)c2ccc(Cl)cc2)CC1 (centres undefined) [Cetirizine DiHCl] | 1.02 ± 0.036

Row | SMILES | cell viability
28 | C=C1C[C@@]2(O)O[C@@]3(C[C@H]2C(C)C)[C@@H](C)CC[C@@H]13 [Curcumol] | 0.993 ± 0.044
29 | Cc1ccc(NCCCc2ccccc2)c(N)c1 | 0.974 ± 0.02
30 | C=CC(=O)Nc1cc(Nc2nccc(-c3cn(C)c4ccccc34)n2)c(OC)cc1N(C)CCN(C)C | 0.965 ± 0.054
31 | C#Cc1cccc(Nc2ncnc3cc4c(cc23)OCCOCCOCCO4)c1 [Icotinib] | 1.03 ± 0.042
32 | C=CC(=O)Nc1cc(Nc2nccc(-c3c[nH]c4ccccc34)n2)c(OC)cc1N(C)CCN(C)C | 1 ± 0.029
33 | CC1(C)[C@H](C(=O)O)N2C(=O)C[C@H]2S1(=O)=O [Sulbactam] | 0.945 ± 0.035
34 | CC1(C)[C@H](C(=O)O)N2C(=O)C[C@H]2S1(=O)=O [Sulbactam sodium] | 1.04 ± 0.02
35 | Cc1ncc(CO)c(CO)c1O [Pyridoxine HCl] | 0.974 ± 0.035
36 | O=C(O)c1ccc(-c2c[nH]c3ncc(-c4ccccc4)cc23)cc1C1CCCC1 | 0.8898 ± 0.0069
37 | CNS(=O)(=O)CCc1ccc2[nH]cc(C3CCN(C)CC3)c2c1 [Naratriptan] | 1.06 ± 0.034
38 | CC(=O)Oc1ccccc1C(=O)O [Aspirin] | 0.978 ± 0.048
39 | N=C(N)NS(=O)(=O)c1ccc(N)cc1 [Sulfaguanidine] | 1.11 ± 0.048
40 | COc1ccc2ccc(=O)oc2c1CC=C(C)C [Osthole] | 0.961 ± 0.047
41 | O=C(Nc1nc2cccc(-c3ccc(CN4CCS(=O)(=O)CC4)cc3)n2n1)C1CC1 [Filgotinib (GLPG0634)] | 0.961 ± 0.048
42 | CC1=C(/C=C/C(C)=C/C=C/C(C)=C/C(=O)O)C(C)(C)CCC1 [Tretinoin] | 0.909 ± 0.042
43 | C[C@]12CC[C@H](O)CC1=CC[C@@H]1[C@@H]2CC[C@]2(C)C(n3cnc4ccccc43)=CC[C@@H]12 [Galeterone] | 1.06 ± 0.033
44 | CN(C)CCOC(c1ccccc1)c1ccccc1 [Diphenhydramine HCl] | 1.03 ± 0.028
45 | COc1ccc2[nH]c([S+]([O-])Cc3ncc(C)c(OC)c3C)nc2n1 (centres undefined) [Tenatoprazole] | 1.01 ± 0.013
46 | CCOC(=O)CCNc1cc(N2CCc3ccccc3CC2)nc(-c2ccccn2)n1 | 0.9 ± 0.034
47 | Cn1cc(CNCC2CCN(c3ncc(C(=O)NO)cn3)CC2)c2ccccc21 | 0.112 ± 0.0029
48 | CC(=O)[C@H]1CC[C@H]2[C@@H]3CCC4=CC(=O)CC[C@]4(C)[C@H]3CC[C@]12C [Progesterone] | 0.996 ± 0.015
49 | CN(C)CC/C=C1/c2ccccc2Sc2ccc(Cl)cc21 [Chlorprothixene] | 0.957 ± 0.039
50 | C[C@]12CC[C@@H]3c4ccc(O)cc4CC[C@H]3[C@@H]1CC[C@@H]2O [Estradiol] | 0.976 ± 0.033
51 | CCCN(CCC)S(=O)(=O)c1ccc(C(=O)O)cc1 [Probenecid] | 0.958 ± 0.029
52 | CCNC(=O)Nc1ccc(-c2nc3c(c(N4CCOC[C@@H]4C)n2)CCN(C2COC2)C3)cc1 | 0.506 ± 0.04
53 | CCNC(=O)c1[nH]nc(-c2cc(Cl)c(O)cc2O)c1-c1ccc(OC)cc1 | 0.697 ± 0.032
54 | C[C@H](NC(=O)/C(C#N)=C/c1cccc(Br)n1)c1ccccc1 | 0.994 ± 0.019

Row | SMILES | cell viability
55 | CC(C)c1ccc(NC(=O)Cn2cnc3c2c(=O)n(C)c(=O)n3C)cc1 | 0.953 ± 0.063
56 | CC1CNc2c(cccc2S(=O)(=O)N[C@@H](CCCNC(=N)N)C(=O)N2CC[C@@H](C)C[C@@H]2C(=O)O)C1 (some centres undefined) [Argatroban] | 1.11 ± 0.064
57 | CN(C)CCN(Cc1ccccc1)c1ccccn1 [Tripelennamine HCl] | 1 ± 0.033
58 | CO[C@H]1C[C@@H]2CC[C@@H](C)[C@@](O)(O2)C(=O)C(=O)N2CCCC[C@H]2C(=O)O[C@H]([C@H](C)C[C@@H]2CC[C@@H](OCCO)[C@H](OC)C2)CC(=O)[C@H](C)/C=C(\C)[C@@H](O)[C@@H](OC)C(=O)[C@H](C)C[C@H](C)/C=C/C=C/C=C/1C [Everolimus (RAD001)] | 0.563 ± 0.014
59 | Fc1ccc(Cl)cc1-c1nc(Nc2ccncc2)c2nccnc2n1 | 0.966 ± 0.056
60 | Nc1ccn([C@@H]2O[C@H](CO)[C@@H](O)C2(F)F)c(=O)n1 [Gemcitabine] | 0.267 ± 0.021
61 | COc1ccccc1N1CCN(CCN(C(=O)C2CCCCC2)c2ccccn2)CC1 | 1.05 ± 0.057
62 | CC(=O)O[C@@]12CO[C@@H]1C[C@H](O)[C@@]1(C)C(=O)[C@H](O)C3=C(C)[C@@H](OC(=O)[C@H](O)[C@@H](NC(=O)OC(C)(C)C)c4ccccc4)C[C@@](O)([C@@H](OC(=O)c4ccccc4)[C@H]21)C3(C)C [Docetaxel] | 0.28 ± 0.013
63 | O=C(/C=C/c1ccccc1)NC(NC(=S)Nc1cccc2cccnc12)C(Cl)(Cl)Cl (centres undefined) [Salubrinal] | 0.992 ± 0.05
64 | O=C(c1ccc(Nc2nccc(-c3cc4ccccc4s3)n2)cc1)N1CCC(N2CCCC2)CC1 [IKK-16 (IKK Inhibitor VII)] | 0.908 ± 0.058
65 | Clc1ccc(CSC(Cn2ccnc2)c2ccc(Cl)cc2Cl)cc1 (centres undefined) [Sulconazole Nitrate] | 0.982 ± 0.017
66 | Nc1ncnc2c1ncn2[C@@H]1O[C@H](CO)[C@@H](O)[C@H]1O [Adenosine] | 1.08 ± 0.015
67 | Cc1cc(C)c(Nc2ccnc(Nc3ccc(C#N)cc3)n2)c(C)c1 [Dapivirine (TMC120)] | 0.878 ± 0.039
68 | Cc1cc(/C=C2/SC(=S)NC2=O)c(C)n1-c1cccnc1 [Optovin] | 0.96 ± 0.037
69 | COc1cc(C(=O)O)ccc1NC(=O)[C@@H]1N[C@@H](CC(C)(C)C)[C@](C#N)(c2ccc(Cl)cc2F)[C@H]1c1cccc(Cl)c1F [Idasanutlin (RG-7388)] | 0.987 ± 0.075
70 | O=C(O)C(O)Cc1ccc(O)c(O)c1 (centres undefined) [Sodium Danshensu] | 0.885 ± 0.031
71 | N[C@@H](Cc1cc(I)c(Oc2cc(I)c(O)c(I)c2)c(I)c1)C(=O)O [L-Thyroxine] | 0.933 ± 0.034
72 | CC1(C)CCC(C)(C)c2cc(NC(=O)c3ccc(C(=O)O)cc3)ccc21 [Tamibarotene] | 0.986 ± 0.013
73 | O=C1Nc2ccccc2/C1=C1/Nc2ccccc2C1=O [Indirubin] | 0.934 ± 0.041
74 | Nc1cccc2c1C(=O)N(C1CCC(=O)NC1=O)C2=O (centres undefined) [Pomalidomide] | 1.05 ± 0.021
75 | Oc1ccc(OC2CCCCO2)cc1 (centres undefined) [Deoxyarbutin] | 0.999 ± 0.071
76 | C[C@H](Cc1cc2c(c(C(N)=O)c1)N(CCCO)CC2)NCCOc1ccccc1OCC(F)(F)F [Silodosin] | 1.06 ± 0.057
77 | CN(C)CCOc1ccc(-c2nc(-c3ccncc3)c(-c3ccc4c(c3)CC/C4=N\O)[nH]2)cc1 | 1.17 ± 0.06
78 | Cc1ccc(-n2sc(=O)n(Cc3ccc(F)cc3)c2=O)cc1 | 0.937 ± 0.014
79 | O=C(NCCN1CCOCC1)c1ccc(Cl)cc1 | 0.954 ± 0.05
